# Experimental data as given in the supplement of paper PMC8728848.
# This is one part of the list.
# B1: Cohesin-marm-DC-ASGPR-CRD (protein)
# chain: LDITSHHHHHHDDLDAVRIKVDTVNAKPGDTVRIPVRFSGIPSKGIANCDFVYSYDPNVLEIIEIEPGDIIVDPNPDKSFDTAVYPDRKIIVFLFAEDSGTGAYAITKDGVFATIVAKVKEGAPNGLSVIKFVEVGGFANNDLVEQKTQFFDGGVNVGDTTEPATPTTPVTTPTTTDDLDAASCPINWVEHQGSCYWFSRSGKTWPEAERYCQLENTHLVVINSREEQNFVQAHLGSAYTWMGLSDPEGVWKWVDGTDYSSGFQNWKPGQPDDWQGHGLGGGEDCAHFHPDGRWNDDVCQRSYHWVCEAGLTQASQDSH
# Columns and labels:
# Test in all cases: glycan array binding signal (z-score within array); higher = stronger binding
# Settings in all cases: glycan notation: IUPAC condensed, linker removed
# Fuc(a1-2)Gal = target: Fuc(a1-2)Gal
# Method in brief: (§1)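 The Consortium for Functional Glycomics database supplied 3228 glycan arrays, of which those lacking an available protein sequence were dropped. The binding signal, a within-array Z-score, was averaged across arrays of the same protein sequence and across linkers. Negative scores can be read as non-binding.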
# Fuc(a1-2)Gal(b1-3)GalNAc = target: Fuc(a1-2)Gal(b1-3)GalNAc
# Method in brief: as §1
# [1] = target: Fuc(a1-2)Gal(b1-3)GalNAc(a1-3)[Fuc(a1-2)]Gal(b1-4)Glc
# Method in brief: as §1
# [2] = target: Fuc(a1-2)Gal(b1-3)GalNAc(a1-3)[Fuc(a1-2)]Gal(b1-4)GlcNAc
# Method in brief: as §1
# [3] = target: Fuc(a1-2)Gal(b1-3)GalNAc(b1-3)Gal
# Method in brief: as §1
# [4] = target: Fuc(a1-2)Gal(b1-3)GalNAc(b1-3)Gal(a1-4)Gal(b1-4)Glc
# Method in brief: as §1
# [5] = target: Fuc(a1-2)Gal(b1-3)GalNAc(b1-4)[Neu5Ac(a2-3)]Gal(b1-4)Glc
# Method in brief: as §1
# Fuc(a1-2)Gal(b1-3)GlcNAc = target: Fuc(a1-2)Gal(b1-3)GlcNAc
# Method in brief: as §1
# [6] = target: Fuc(a1-2)Gal(b1-3)GlcNAc(b1-2)Man(a1-3)[Fuc(a1-2)Gal(b1-3)GlcNAc(b1-2)Man(a1-6)]Man(b1-4)GlcNAc(b1-4)GlcNAc
# Method in brief: as §1
# [7] = target: Fuc(a1-2)Gal(b1-3)GlcNAc(b1-2)Man(a1-3)[Fuc(a1-2)Gal(b1-3)GlcNAc(b1-2)Man(a1-6)]Man(b1-4)GlcNAc(b1-4)[Fuc(a1-6)]GlcNAc
# Method in brief: as §1
# [8] = target: Fuc(a1-2)Gal(b1-3)GlcNAc(b1-3)Gal(b1-4)Glc
# Method in brief: as §1
# [9] = target: Fuc(a1-2)Gal(b1-3)GlcNAc(b1-3)GalNAc
# Method in brief: as §1
# [10] = target: Fuc(a1-2)Gal(b1-3)GlcNAc(b1-3)[Fuc(a1-2)Gal(b1-3)GlcNAc(b1-6)]GalNAc
# Method in brief: as §1
# [11] = target: Fuc(a1-2)Gal(b1-3)GlcNAc(b1-3)[Gal(b1-4)GlcNAc(b1-6)]Gal(b1-4)Glc
# Method in brief: as §1
# [12] = target: Fuc(a1-2)Gal(b1-3)GlcNAc(b1-3)[Neu5Ac(a2-6)Gal(b1-4)GlcNAc(b1-6)]Gal(b1-4)Glc
# Method in brief: as §1
# [13] = target: Fuc(a1-2)Gal(b1-3)GlcNAc6S
# Method in brief: as §1
# [14] = target: Fuc(a1-2)Gal(b1-3)[Fuc(a1-4)]GlcNAc
# Method in brief: as §1
# [15] = target: Fuc(a1-2)Gal(b1-3)[Fuc(a1-4)]GlcNAc(b1-2)Man(a1-3)[Fuc(a1-2)Gal(b1-3)[Fuc(a1-4)]GlcNAc(b1-2)Man(a1-3)]Man(b1-4)GlcNAc(b1-4)GlcNAc
# Method in brief: as §1
# [16] = target: Fuc(a1-2)Gal(b1-3)[Fuc(a1-4)]GlcNAc(b1-2)Man(a1-3)[Fuc(a1-2)Gal(b1-3)[Fuc(a1-4)]GlcNAc(b1-2)Man(a1-6)]Man(b1-4)GlcNAc(b1-4)[Fuc(a1-6)]GlcNAc(b1-4)[Fuc(a1-6)]GlcNAc
# Method in brief: as §1
# [17] = target: Fuc(a1-2)Gal(b1-3)[Fuc(a1-4)]GlcNAc(b1-3)[Fuc(a1-3)[Gal(b1-4)]GlcNAc(b1-6)]Gal(b1-4)Glc
# Method in brief: as §1
# [18] = target: Fuc(a1-2)Gal(b1-3)[Fuc(a1-4)]GlcNAc(b1-3)[Gal(b1-4)GlcNAc(b1-6)]Gal(b1-4)Glc
# Method in brief: as §1
# Fuc(a1-2)Gal(b1-4)Glc = target: Fuc(a1-2)Gal(b1-4)Glc
# Method in brief: as §1
# Fuc(a1-2)Gal(b1-4)Glc6S = target: Fuc(a1-2)Gal(b1-4)Glc6S
# Method in brief: as §1
# Fuc(a1-2)Gal(b1-4)GlcNAc = target: Fuc(a1-2)Gal(b1-4)GlcNAc
# Method in brief: as §1
# [19] = target: Fuc(a1-2)Gal(b1-4)GlcNAc(b1-2)Man
# Method in brief: as §1
# [20] = target: Fuc(a1-2)Gal(b1-4)GlcNAc(b1-2)Man(a1-3)[Fuc(a1-2)Gal(b1-4)GlcNAc(b1-2)Man(a1-6)]Man(b1-4)GlcNAc(b1-4)GlcNAc
# Method in brief: as §1
# [21] = target: Fuc(a1-2)Gal(b1-4)GlcNAc(b1-2)Man(a1-3)[Fuc(a1-2)Gal(b1-4)GlcNAc(b1-2)Man(a1-6)]Man(b1-4)GlcNAc(b1-4)[Fuc(a1-6)]GlcNAc
# Method in brief: as §1
# [22] = target: Fuc(a1-2)Gal(b1-4)GlcNAc(b1-2)[Fuc(a1-2)Gal(b1-4)GlcNAc(b1-4)]Man(a1-3)[Fuc(a1-2)Gal(b1-4)GlcNAc(b1-2)Man(a1-6)]Man(b1-4)GlcNAc(b1-4)GlcNAc
# Method in brief: as §1
# [23] = target: Fuc(a1-2)Gal(b1-4)GlcNAc(b1-3)Gal(b1-4)GlcNAc
# Method in brief: as §1
# [24] = target: Fuc(a1-2)Gal(b1-4)GlcNAc(b1-3)Gal(b1-4)GlcNAc(b1-2)Man(a1-3)[Fuc(a1-2)Gal(b1-4)GlcNAc(b1-3)Gal(b1-4)GlcNAc(b1-2)Man(a1-6)]Man(b1-4)GlcNAc(b1-4)GlcNAc
# Method in brief: as §1
binder,measurement,setting,value
B1,glycan array binding signal (z-score),Fuc(a1-2)Gal,-0.385
same,glycan array binding signal (z-score),Fuc(a1-2)Gal(b1-3)GalNAc,-0.443
same,glycan array binding signal (z-score),[1],-0.446
same,glycan array binding signal (z-score),[2],-0.394
same,glycan array binding signal (z-score),[3],-0.101
same,glycan array binding signal (z-score),[4],-0.384
same,glycan array binding signal (z-score),[5],0.811
same,glycan array binding signal (z-score),Fuc(a1-2)Gal(b1-3)GlcNAc,-0.354
same,glycan array binding signal (z-score),[6],-0.157
same,glycan array binding signal (z-score),[7],-0.081
same,glycan array binding signal (z-score),[8],-0.445
same,glycan array binding signal (z-score),[9],-0.422
same,glycan array binding signal (z-score),[10],-0.398
same,glycan array binding signal (z-score),[11],-0.456
same,glycan array binding signal (z-score),[12],-0.438
same,glycan array binding signal (z-score),[13],0.263
same,glycan array binding signal (z-score),[14],-0.443
same,glycan array binding signal (z-score),[15],-0.408
same,glycan array binding signal (z-score),[16],-0.413
same,glycan array binding signal (z-score),[17],-0.447
same,glycan array binding signal (z-score),[18],-0.444
same,glycan array binding signal (z-score),Fuc(a1-2)Gal(b1-4)Glc,-0.347
same,glycan array binding signal (z-score),Fuc(a1-2)Gal(b1-4)Glc6S,-0.446
same,glycan array binding signal (z-score),Fuc(a1-2)Gal(b1-4)GlcNAc,-0.393
same,glycan array binding signal (z-score),[19],-0.404
same,glycan array binding signal (z-score),[20],-0.256
same,glycan array binding signal (z-score),[21],-0.057
same,glycan array binding signal (z-score),[22],-0.426
same,glycan array binding signal (z-score),[23],-0.45
same,glycan array binding signal (z-score),[24],-0.27
